Reference: paper PMC4336329 (PLoS ONE, 2015)
Out of some 310,000 compounds screened, about 14,000 (4.5%) showed an effect of 50% or more. The effect is printed as a negative number. The list shows a part of the results.

These compounds were tested against human ether-à-go-go-related gene (hERG) potassium channel (human, UniProt Q12809) (assay: primary screen, population patch clamp on CHO cells stably expressing hERG).
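Note: peak tail current of the secondary pulse compared with the same well before compound.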

human ether-à-go-go-related gene (hERG) potassium channel, sequence (Q12809 whole entry, looked up): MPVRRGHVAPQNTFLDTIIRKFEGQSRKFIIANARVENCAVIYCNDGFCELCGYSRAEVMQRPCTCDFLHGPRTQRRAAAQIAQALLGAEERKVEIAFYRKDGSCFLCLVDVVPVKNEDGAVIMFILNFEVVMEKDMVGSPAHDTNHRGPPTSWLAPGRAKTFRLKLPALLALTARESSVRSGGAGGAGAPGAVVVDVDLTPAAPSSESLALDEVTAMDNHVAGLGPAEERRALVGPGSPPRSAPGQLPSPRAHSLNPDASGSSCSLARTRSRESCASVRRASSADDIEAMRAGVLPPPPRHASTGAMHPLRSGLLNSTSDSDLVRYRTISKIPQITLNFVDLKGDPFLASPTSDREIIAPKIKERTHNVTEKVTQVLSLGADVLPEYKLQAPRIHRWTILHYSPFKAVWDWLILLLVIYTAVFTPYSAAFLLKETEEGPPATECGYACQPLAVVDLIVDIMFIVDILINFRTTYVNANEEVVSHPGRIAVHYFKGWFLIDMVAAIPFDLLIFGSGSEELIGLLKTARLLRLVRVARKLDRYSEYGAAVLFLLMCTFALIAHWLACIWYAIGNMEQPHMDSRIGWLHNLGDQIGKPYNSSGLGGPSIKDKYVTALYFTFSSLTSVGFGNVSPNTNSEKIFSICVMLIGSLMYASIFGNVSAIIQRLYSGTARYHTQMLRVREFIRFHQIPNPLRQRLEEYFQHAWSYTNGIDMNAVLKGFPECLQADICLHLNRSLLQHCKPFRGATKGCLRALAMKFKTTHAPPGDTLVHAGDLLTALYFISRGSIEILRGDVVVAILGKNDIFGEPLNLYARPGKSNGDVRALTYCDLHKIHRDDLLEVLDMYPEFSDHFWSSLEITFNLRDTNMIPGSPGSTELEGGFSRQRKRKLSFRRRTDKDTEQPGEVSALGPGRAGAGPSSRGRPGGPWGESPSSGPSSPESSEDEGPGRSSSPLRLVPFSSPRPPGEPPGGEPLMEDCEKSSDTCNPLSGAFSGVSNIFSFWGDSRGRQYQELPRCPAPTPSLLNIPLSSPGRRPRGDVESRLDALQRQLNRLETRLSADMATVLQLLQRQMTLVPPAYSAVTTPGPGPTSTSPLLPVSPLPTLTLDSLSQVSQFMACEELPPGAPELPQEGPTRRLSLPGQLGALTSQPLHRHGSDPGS

Compound	hERG current change (%, negative = inhibition) at 10uM [%]
CC1CCCN(C(=O)C2CCN(c3nc(-c4ccccc4)nc4c3CCC4)CC2)C1 (centres unmarked)	-55.1
CN(C(=O)C1CCC(=O)N(Cc2cccc(F)c2)C1)C1CCCCC1 (centres unmarked)	-11.2
C=CCSc1nnc(NC(=O)c2ccc(NC(C)=O)cc2)s1	1.7
CCCCCCCCCC(=O)N[C@H](CN1CCOCC1)[C@H](O)c1ccccc1.Cl	-16.6
CC(NC(=O)c1ccc(Br)o1)C1CC2CCC1C2 (centres unmarked)	-0.321
Cc1ccnc(NC(=O)CCC(=O)N(CC(=O)NCCc2ccccc2)c2ccccc2F)c1	-10.6
CSc1nnc(CNS(=O)(=O)c2ccc(F)cc2)n1C	19.7
Cc1ccccc1N1CCN(CCCOc2ccc3c(C)cc(=O)oc3c2)CC1	-75.3
Nc1nonc1-c1nc2ccccc2n1Cc1ccc(F)cc1	-9.25
COc1ccc(N2CCN(C(=O)c3cccn4c(=O)c5ccccc5nc34)CC2)cc1	-60.1
Cc1ccc(C)c(NCCC#N)c1	3.2
COCCN1CC(=O)N(c2cccc(C)c2C)C(c2ccc(Cl)cc2)C1=O (centres unmarked)	-14
COc1ccc(-c2csc(Nc3ncccn3)n2)cc1C	16.8
CCc1ccc(NC(=S)NCC2CCCN2CC)cc1 (centres unmarked)	-32.2
C=CCN1c2ccccc2[C@]23C[C@@H](C(=O)OC)N=C2NC(C(=O)OC)=C(C(=O)OC)[C@H]13	-18.6
Cc1cccc(C)c1OC(=O)Cc1ccccc1	8.89
O=C(CCc1nc2ccccc2c(=O)[nH]1)NCCN1C(=O)S/C(=C\c2ccc(Cl)cc2Cl)C1=O	0.73
CCSC1=NCCN1S(=O)(=O)c1ccc(NC(C)=O)cc1	4.89
COc1ccc(C(=O)N/N=C/c2ccc(N3CCOCC3)s2)cc1OC	11.6
Cc1ccc(NC(=O)CN2CCC(C(=O)c3ccc4c(c3)OCCO4)CC2)cc1	-44.7
Cc1nnc(SCC(=O)c2ccccc2)n1Cc1ccccc1	3.11
O=C(/C=C/c1cccc([N+](=O)[O-])c1)NCc1cccnc1	-14

Compound	hERG current change (%, negative = inhibition) at 10uM [%]
CCCc1nc2c(sc3nc4c(cc32)COC(C)(C)C4)c(=O)n1Cc1ccco1	-27
O=C1CC(c2ccccc2)=NN1c1nc(-c2ccccc2)cs1	6.5
COC(=O)C1=C(C)N(Cc2cccnc2)C(=O)/C1=C\c1cccs1	-89
COc1cc(/C=C(\C#N)C(=O)Nc2ccc(SC(F)F)cc2)cc(OC)c1OC	-22.4
COC(=O)c1ccc(NC(=O)COc2ccc(C3C(C#N)=C(N)Oc4c3ccc3ccccc43)cc2OC)cc1 (centres unmarked)	8.25
Cc1nnc(SCC(=O)Nc2ncc3c(n2)CC(c2ccccc2)CC3=O)s1 (centres unmarked)	-4.67
CC(=O)c1ccc(OCC(=O)Nc2ccccc2C(=O)NC2CC2)cc1	6.93
CCN1CCN(Cc2ccc(NC(=O)c3ccc(C)c(NC(=O)C(=O)c4c[nH]c5ccccc45)c3)cc2C(F)(F)F)CC1.O=C(O)C(F)(F)F	7.78
CC(=O)c1sc(NC(=O)CS(=O)(=O)c2ccc(F)cc2)nc1C	-22.1
COc1ccccc1C(CNC(=O)c1ccc(C)c(S(=O)(=O)N2CCCCC2)c1)N(C)C (centres unmarked)	-36.6
Cc1ccc(-n2cc(CN(C)CCc3cn[nH]c3)c(-c3cccc(C)c3)n2)cc1	-68
Cl.OCc1cc(CO)c(O)c(CCc2ccccc2)n1	13.7
CCc1ccc(CN(C)C(=O)CCc2nnc(CCc3cccc(OC)c3)o2)nc1	-33.3
CC(=O)c1c(C)[nH]c(C2=NNC(=NCc3ccccc3)SC2)c1C	25.9
O=C(Nc1nc(-c2ccc(F)cc2)cs1)C1CCN(C(=O)c2ccc(F)cc2)CC1	-54.7
CCc1nn(C(C)C(=O)NCCN2CCN(c3cccc(C)c3C)CC2)c(=O)c2cc3occc3n12 (centres unmarked)	-65.3
C=CCn1c(O)c(C(C)=NCCO)c(=O)[nH]c1=O	1.19
COc1ccc(-c2nn(-c3ccccc3)cc2/C=C(\C#N)S(=O)(=O)c2ccccc2)cc1OC	23.7
CSc1cccc(NC(=O)CNC(=O)C2CCCCC2)c1	10.1
COc1ccc(NC(=O)/C=C/c2ccc(Br)o2)cn1	6.98
COc1ccc(-n2c(C)nc3ccccc3c2=O)c([N+](=O)[O-])c1	-6.62
COc1cc(NC(=O)c2ccc(F)cc2)c(OC)cc1NC(=O)CN1CCOCC1	-22.6
